Among all 390,000 compounds or so, about 930 (0.24%) were called active. The inconclusive results got no clear call from the source; some entries with a clear call stand among them for comparison. The call rests on the fitted dose curve; in most records, active means well fitted activation curve with a large enough effect; inconclusive means small, poorly fitted or top-dose-only effect; inactive means no such curve, though single readings can be large or run the other way. Potencies beside an inconclusive call are fits to weak or partial responses and may not hold up.
experiment: qHTS for Suppressors of FUS Proteinopathy: Primary screen using FUS-linked yeast assay; further: nearly all actives have a fitted effect of over 55% in size; details: S. cerevisiae FUS-expressing, OD600, 24 h; Potency: growth rescue; series mostly up to 76.6 µM
Procedure, shortened: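 Absorbance at 600 nm, taken 24hr after compound addition, measured rescue of FUS-yeast growth at 30C. Induction used 2% galactose with seeding at OD 0.005. Controls: CP55940 from 92uM final, DMSO only.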
Potency means the concentration at half of the fitted maximal effect; tags describe the fitted curve by direction and shape.

| SMILES | Potency |
| --- | --- |
| COc1cc(OC)cc(C(=O)N[C@H](C(=O)Nc2nc(-c3ccc(OC)c(OC)c3)cs2)C(C)C)c1 | inconclusive: 31.6 µM [activator, single point] |
| COc1ccc(S(=O)(=O)N2CCC(c3cc(-c4cccc5ccccc45)n[nH]3)CC2)cc1 | inconclusive: 10 µM [activator, partial curve, poor fit] |
| O=C1C(Cc2ccccc2)Nc2ncnc(N3CCN(c4ccccc4)CC3)c2N1Cc1ccc(Br)cc1 (centres undefined) | inconclusive: 31.6 µM [activator, partial curve, poor fit] |
| CC1(C(=O)Nc2ccc(Cl)c(C(F)(F)F)c2)Cc2c(-c3cccc(C(N)=O)c3)ccnc2O1 (centres undefined) | inconclusive: 39.8 µM [activator, single point] |
| O=C(CSc1ncnc2ccccc12)NCc1ccc2c(c1)OCO2 | inactive |
| CCCCc1nc2ccccc2c(NC(=O)CN2CCCC2)c1CCC | inactive |
| CCc1ccc2c(CC(=O)Nc3nnc(C4CC4)s3)coc2c1 | inconclusive: 3.98 µM [activator, full curve] |
| CCC/C=C/c1ccc(CN2C(CC(C)C)C(=O)N(Cc3cn(CCC4OCCO4)nn3)CCS2(=O)=O)cc1 (centres undefined) | inconclusive: 31.6 µM [activator, single point] |
| CCC1Nc2ncnc(N3CCc4ccccc4C3)c2N(Cc2ccc(Cl)cc2)C1=O (centres undefined) | inconclusive: 28.2 µM [activator, single point] |
| COc1ccc(Nc2nc(Cl)nc(Nc3ccc(OC)cc3OC)n2)c(OC)c1 | inactive |
| CCc1ccc(C(=O)c2cn(CC(=O)NCCc3ccccc3)c3nc(C)ccc3c2=O)cc1 | inactive |
| COc1cccc(C2CC(c3ccc(C)cc3)=NN2C(=O)c2ccccc2F)c1OC (centres undefined) | inconclusive: 14.1 µM [activator, partial curve, poor fit] |
| CCCn1c(CCNC(=O)c2ccco2)nc2ccccc21 | inconclusive: 11.2 µM [activator, single point] |
| CCN1CCc2c(C#N)c(N3CCCCC3)nc(NCc3ccccc3)c2C1 | inactive |
| CC(=O)NC(C)(c1ccccc1)c1nc(/C=C/c2ccccc2)cs1 (centres undefined) | inconclusive: 44.7 µM [activator, single point] |
| Cc1cc(C)cc(NC(=O)Cn2nnc(-c3ccccc3F)n2)c1 | inconclusive: 44.7 µM [activator, single point] |
| CCCNC(=O)NC(=O)COc1ccc(-c2ccc(C#N)cc2)cc1 | inactive |
| Nc1ccc(C=Cc2ccc(N)cc2)cc1 | inconclusive: 11.2 µM [activator, single point] |
| COc1ccc(N(C(=O)CNC(=O)c2ccco2)C(C(=O)NC2CCCC2)c2ccco2)cc1 (centres undefined) | inactive |
| COc1ccc(NC(=O)C(c2ccc(C#N)cc2)n2c(=O)c(-c3ccco3)nc3ccccc32)cc1 (centres undefined) | inconclusive: 44.7 µM [activator, single point] |
| Cc1ccc(NC(=O)Cn2ccc([N+](=O)[O-])n2)cc1Cl | inconclusive: 11.2 µM [activator, single point] |
| Cn1c(-c2c(N)n(CCCc3ccccc3)c3nc4ccccc4nc23)nc2ccccc21 | active: 31.6 µM |
| COC(=O)CNC(=O)[C@H](Cc1ccccc1)NC1(C(=O)NCCc2c[nH]c3ccccc23)CCCCC1 | inactive |

| SMILES | Potency |
| --- | --- |
| Cc1cc(N2CCCC2)ccc1NC(=O)COc1ccccc1 | inconclusive: 20 µM [activator, partial curve, poor fit] |
| C=CCn1c(Cc2cccs2)nnc1SCC(=O)Nc1cccc2ccccc12 | inactive |
| O=C(Cn1c(=O)sc2ccccc21)NCc1ccccn1 | inactive |
| CCn1c(=O)c(C(=O)CN2c3ccccc3CC2C)c(N)n(Cc2ccccc2)c1=O (centres undefined) | inconclusive: 14.1 µM [activator, partial curve] |
| CC1(C)C2CCC(C2)C1(C)NC(=O)CN1CCN(Cc2ccccc2)CC1 (centres undefined) | inactive |
| CCN(CC)CCCN1C=C2C(=O)C(C)(OC(=O)C3CCCC3)C(=O)C=C2C=C1c1ccsc1 (centres undefined) | inconclusive: 31.6 µM [activator, partial curve, poor fit] |
| Cc1ccc(NC(=O)COC(=O)C2CCC(=O)N2)c(S(=O)(=O)N2CCOCC2)c1 (centres undefined) | inactive |
| COc1ccc(-c2c([C@H]3[C@H]4C=CC[C@@H](C)[C@@H]4C(=O)N3Cc3ccccc3)ccc3ccccc23)cc1 | inconclusive: 50.1 µM [activator, single point] |
| Cc1ccc(S(=O)(=O)N2CC[C@@]3(Cc4ccccc4)Cc4ccccc4C[C@@H]23)cc1 | inactive |
| Cc1ccc(C)c(CC(=O)N2CCCCC2c2cc(C(=O)Nc3cccc(C#N)c3)no2)c1 (centres undefined) | inconclusive: 39.8 µM [activator, single point] |
| COc1ccc(OC)c(NC(=O)C2CCCN(S(=O)(=O)c3ccc(-n4cnnn4)cc3)C2)c1 (centres undefined) | inactive |
| C#CCOCCOCCOCCNc1nc(N2CCN(C(=O)[C@H]([C@@H](C)CC)n3cc(CCCN=C(N)N)nn3)CC2)nc(N2CCN(C(=O)[C@H](C)n3cc(CCCN=C(N)N)nn3)CC2)n1 | inconclusive: 11.2 µM [activator, single point] |
| CCCCNC(=O)C[C@@H]1C(=O)N(CCc2ccc(Cl)cc2)/C2=C/CCCCC[C@@]21C(=O)OCC | inconclusive: 35.5 µM [activator, single point] |
| CCCc1cnc(N2CCN(C(=O)c3ccc(OC)cc3)CC2)nc1 | inactive |
| CC(=O)Oc1ccc(C23c4ccccc4C2(OC(C)=O)c2cc(OC(C)=O)ccc23)cc1 (centres undefined) | inconclusive: 11.2 µM [activator, partial curve, poor fit] |
| Cc1cccc(Cc2c(C)nc3nc(SCC(=O)NCc4ccccc4)nn3c2C)c1 | inconclusive: 31.6 µM [activator, single point] |
| Cc1ccc(C)c(N2CCN(C(=O)CCCn3c(=O)c4cccn4c4cccnc43)CC2)c1 | inconclusive: 50.1 µM [activator, single point] |
| O=C(c1ccc(-c2cc(Cl)ccc2Cl)o1)N1CCOCC1 | inactive |
| O=[N+]([O-])c1cccc(-c2ccc(SCc3cccnc3)nn2)c1 | inactive |
| O=C(c1ccc(Cl)c(S(=O)(=O)Nc2ccccc2C(=O)N2CCc3ccccc3C2)c1)N1CCc2ccccc2C1 | inconclusive: 12.6 µM [activator, partial curve, poor fit] |
| Cc1nn(C)c(C)c1/C=C/C(=O)O | inactive |
| Cc1ccc(NC(=O)C2CCN(c3ncccn3)CC2)cc1C | inactive |
| CCOC(=O)[C@]12CCCC=C1N(Cc1ccc(Cl)cc1Cl)C(=O)[C@H](CC(=O)NCc1cccs1)C2 | inconclusive: 50.1 µM [activator, single point] |

| SMILES | Potency |
| --- | --- |
| Cc1ccc(NC(=S)NC(=O)c2ccc(F)cc2)cc1S(=O)(=O)Nc1ccccc1Cl | inactive |
| CC(C)(C)NC(=O)C(c1ccncc1)N(Cc1ccc(F)cc1)C(=O)c1ccc(-c2ccccc2)[nH]1 (centres undefined) | inconclusive: 35.5 µM [activator, single point] |
| CCOC(=O)[C@]12CCCCC/C=C\1N(CCc1ccc(Cl)cc1)C(=O)[C@H]2CC(=O)N1CCOCC1 | inconclusive: 22.4 µM [activator, single point] |
| Cc1nc(N2CCOCC2)c2c(C)c(C(=O)Nc3ccccc3C(F)(F)F)sc2n1 | inactive |
| COc1cccc(-n2c(-c3cccc(F)c3)nc3c(cnn3-c3ccc(C)cc3)c2=O)c1 | inconclusive: 10 µM [activator, partial curve] |
| Cc1c(-c2ccc(Cl)cc2)c(=O)oc2ccc(OC(=O)N3CCOCC3)cc12 | inconclusive: 50.1 µM [activator, single point] |
| CCn1nc(C)cc1C(=O)OCC(=O)c1ccc(Cl)cc1 | inconclusive: 39.8 µM [activator, single point] |
| Cc1cc(C(=O)CSc2nnc(N)s2)c(C)n1CCc1ccc(F)cc1 | inconclusive: 35.5 µM [activator, single point] |
| CCc1cnc2c(c1SCC(=O)c1ccc(OC)cc1)c(=O)n(C)c(=O)n2C | inactive |
| COc1ccc(C2C(C(=O)NCc3ccco3)c3ccccc3C(=O)N2C)cc1 (centres undefined) | inactive |
| CCC(C)(O)c1[nH]c2ccc(C(F)(F)F)cc2c1C (centres undefined) | inactive |
| C=CCOC(=O)C1=C[C@H](c2ccc(Br)cc2)C[C@H](OCCCCO)O1 | inconclusive: 35.5 µM [activator, partial curve, poor fit] |
| Cc1cc(SCC(=O)c2ccc3c(c2)OCO3)nc2ccccc12 | inactive |
| CC1=C(C(=O)Nc2ccc(C)cc2Cl)C2(CCCCCC2)OC1=O | inactive |
| CCC(=O)c1cc2c(cc1NC(=O)c1ccccc1F)OCCO2 | inactive |
| CCN(CC)c1sc(S(=O)(=O)c2ccccc2)nc1S(=O)(=O)c1ccc(C)cc1 | inactive |
| Cc1ccc(C)c2sc(N3CCN(C(=O)C(C)(C)C)CC3)nc12 | inactive |
| COc1cc(-c2nc(Cn3nnc(C(=O)Nc4ccc(C)cc4C)c3C)c(C)o2)cc(OC)c1OC | inactive |
| O=C(NC1CCCCN(Cc2cccc(Cl)c2)C1=O)c1cccc2nsnc12 (centres undefined) | inconclusive: 20 µM [activator, partial curve] |
| CC(=O)NC(c1ccccc1)c1cc(Cl)c2cccnc2c1O (centres undefined) | inactive |
| COc1cc(Cl)ccc1NC(=O)COc1ccccc1C(=O)N1CCN(c2ccc(O)cc2)CC1 | inconclusive: 14.1 µM [activator, partial curve] |
| COc1ccccc1C(C[N+](=O)[O-])c1c[nH]c2ccccc12 (centres undefined) | inactive |
| N#Cc1ccc(C(=O)Nc2ccc3c(c2)N(C2CCCC2)C(=O)c2ccccc2S3)cc1 | inconclusive: 5.62 µM [activator, partial curve, poor fit] |
